# According to the supplement of paper PMC8728848:
# The list shows a part of the results.
# B1: SP8524D-bot-399-27-399 (Bacteroides ovatus) (protein)
# chain: DAKYDTLDTHAYIEEALSSTSQKVTVQATGESFTTLNVHLSNLSSTDNHYKLVTDQSVLDTYNHINGTGYIMLPKDYYTLPETITVKAGQYAADALSIALKAFSQEMMKSGESYALPVKLVLQDGSISPMENTGTFVILAESIIEFSAPMFVGAPSLKANKFTESPETYSQYTIEVRFQVANTADRDRAVFKNGGDDANFILLRFEDPQSDNENYKAHSLVQIVGRNRLYLNPSNSFKPNEWQHLALVCDGSNYRLYINGVDSGVLSIPTGATTFSDVNWFCLGDDSYSRWGNCKILMSEARIWSVVRSASQIQNNMTQVSPKSVGLEAYWRFNEGQGNVFEDATGKGHTLTTSATPTWIDGILSTDKSTEWK
# Assays:
# Test in all cases: glycan array binding signal (z-score within array); higher = stronger binding
# Conditions in all cases: glycan notation: IUPAC condensed, linker removed
# [1] = biological target: Gal(b1-3)[Fuc(a1-4)]GlcNAc(b1-6)GalNAc
# Method in brief: (§1)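 Columns mapping to the same glycan were averaged after glycan names were converted to IUPAC-condensed notation. The data come from 3228 arrays in the Consortium for Functional Glycomics database, limited to those with an available protein sequence. Binding is reported as a within-array Z-score averaged across arrays of one protein sequence and across linkers.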
# [2] = biological target: Gal(b1-3)[GlcNAc(b1-6)]GalNAc
# Method in brief: as §1
# [3] = biological target: Gal(b1-3)[Neu5Ac(a2-6)]GalNAc
# Method in brief: as §1
# [4] = biological target: Gal(b1-3)[Neu5Ac(a2-6)]GlcNAc(b1-4)Gal(b1-4)Glc
# Method in brief: as §1
# [5] = biological target: Gal(b1-3)[Neu5Ac(b2-6)]GalNAc
# Method in brief: as §1
# [6] = biological target: Gal(b1-4)Gal
# Method in brief: as §1
# [7] = biological target: Gal(b1-4)GalNAc(a1-3)[Fuc(a1-2)]Gal(b1-4)GlcNAc
# Method in brief: as §1
# [8] = biological target: Gal(b1-4)GalNAc(b1-3)[Fuc(a1-2)]Gal(b1-4)GlcNAc
# Method in brief: as §1
# [9] = biological target: Gal(b1-4)Glc
# Method in brief: as §1
# [10] = biological target: Gal(b1-4)Glc6S
# Method in brief: as §1
# [11] = biological target: Gal(b1-4)GlcNAc
# Method in brief: as §1
# [12] = biological target: Gal(b1-4)GlcNAc(a1-6)Gal(b1-4)GlcNAc
# Method in brief: as §1
# [13] = biological target: Gal(b1-4)GlcNAc(b1-2)Man
# Method in brief: as §1
# [14] = biological target: Gal(b1-4)GlcNAc(b1-2)Man(a1-3)Man(b1-4)GlcNAc(b1-4)GlcNAc
# Method in brief: as §1
# [15] = biological target: Gal(b1-4)GlcNAc(b1-2)Man(a1-3)[Gal(b1-4)GlcNAc(b1-2)Man(a1-6)]Man(b1-4)GlcNAc(b1-4)GlcNAc
# Method in brief: as §1
# [16] = biological target: Gal(b1-4)GlcNAc(b1-2)Man(a1-3)[Gal(b1-4)GlcNAc(b1-2)Man(a1-6)]Man(b1-4)GlcNAc(b1-4)[Fuc(a1-6)]GlcNAc
# Method in brief: as §1
# [17] = biological target: Gal(b1-4)GlcNAc(b1-2)Man(a1-3)[Gal(b1-4)GlcNAc(b1-2)Man(a1-6)][Gal(b1-4)GlcNAc(b1-4)]Man(b1-4)GlcNAc(b1-4)[Fuc(a1-6)]GlcNAc
# Method in brief: as §1
# [18] = biological target: Gal(b1-4)GlcNAc(b1-2)Man(a1-3)[Gal(b1-4)GlcNAc(b1-2)Man(a1-6)][GlcNAc(b1-4)]Man(b1-4)GlcNAc(b1-4)[Fuc(a1-6)]GlcNAc
# Method in brief: as §1
# [19] = biological target: Gal(b1-4)GlcNAc(b1-2)Man(a1-3)[GlcNAc(b1-2)Man(a1-6)]Man(b1-4)GlcNAc(b1-4)GlcNAc
# Method in brief: as §1
# [20] = biological target: Gal(b1-4)GlcNAc(b1-2)Man(a1-3)[GlcNAc(b1-4)][Gal(b1-4)GlcNAc(b1-2)Man(a1-6)]Man(b1-4)GlcNAc(b1-4)GlcNAc
# Method in brief: as §1
# [21] = biological target: Gal(b1-4)GlcNAc(b1-2)Man(a1-3)[Man(a1-6)]Man(b1-4)GlcNAc(b1-4)GlcNAc
# Method in brief: as §1
# [22] = biological target: Gal(b1-4)GlcNAc(b1-2)Man(a1-6)Man(b1-4)GlcNAc(b1-4)GlcNAc
# Method in brief: as §1
# [23] = biological target: Gal(b1-4)GlcNAc(b1-2)Man(a1-6)[GlcNAc(b1-2)Man(a1-3)]Man(b1-4)GlcNAc(b1-4)GlcNAc
# Method in brief: as §1
# [24] = biological target: Gal(b1-4)GlcNAc(b1-2)Man(a1-6)[Man(a1-3)]Man(b1-4)GlcNAc(b1-4)GlcNAc
# Method in brief: as §1
# [25] = biological target: Gal(b1-4)GlcNAc(b1-2)[Gal(b1-4)GlcNAc(b1-4)]Man(a1-3)[Gal(b1-4)GlcNAc(b1-2)Man(a1-6)]Man(b1-4)GlcNAc(b1-4)GlcNAc
# Method in brief: as §1
# [26] = biological target: Gal(b1-4)GlcNAc(b1-2)[Gal(b1-4)GlcNAc(b1-4)]Man(a1-3)[Gal(b1-4)GlcNAc(b1-2)[Gal(b1-4)GlcNAc(b1-6)]Man(a1-6)]Man(b1-4)GlcNAc(b1-4)GlcNAc
# Method in brief: as §1
# [27] = biological target: Gal(b1-4)GlcNAc(b1-2)[Gal(b1-4)GlcNAc(b1-4)]Man(a1-3)[GlcNAc(b1-4)][Gal(b1-4)GlcNAc(b1-2)Man(a1-6)]Man(b1-4)GlcNAc(b1-4)GlcNAc
# Method in brief: as §1
# [28] = biological target: Gal(b1-4)GlcNAc(b1-2)[Gal(b1-4)GlcNAc(b1-4)]Man(a1-3)[GlcNAc(b1-4)][Gal(b1-4)GlcNAc(b1-2)[Gal(b1-4)GlcNAc(b1-6)]Man(a1-6)]Man(b1-4)GlcNAc(b1-4)GlcNAc
# Method in brief: as §1
# [29] = biological target: Gal(b1-4)GlcNAc(b1-2)[Gal(b1-4)GlcNAc(b1-6)]Man(a1-6)[Gal(b1-4)GlcNAc(b1-2)Man(a1-3)]Man(b1-4)GlcNAc(b1-4)GlcNAc
# Method in brief: as §1
# [30] = biological target: Gal(b1-4)GlcNAc(b1-2)[Gal(b1-4)GlcNAc(b1-6)]Man(a1-6)[Gal(b1-4)GlcNAc(b1-2)Man(a1-3)]Man(b1-4)GlcNAc(b1-4)[Fuc(a1-6)]GlcNAc
# Method in brief: as §1
# [31] = biological target: Gal(b1-4)GlcNAc(b1-2)[Gal(b1-4)GlcNAc(b1-6)]Man(a1-6)[GlcNAc(b1-4)][Gal(b1-4)GlcNAc(b1-2)Man(a1-3)]Man(b1-4)GlcNAc(b1-4)GlcNAc
# Method in brief: as §1
# [32] = biological target: Gal(b1-4)GlcNAc(b1-2)[Gal(b1-4)GlcNAc(b1-6)]Man(a1-6)[GlcNAc(b1-4)][Gal(b1-4)GlcNAc(b1-2)[Gal(b1-4)GlcNAc(b1-4)]Man(a1-3)]Man(b1-4)GlcNAc(b1-4)[Fuc(a1-6)]GlcNAc
# Method in brief: as §1
# [33] = biological target: Gal(b1-4)GlcNAc(b1-3)Gal(b1-3)GalNAc
# Method in brief: as §1
# [34] = biological target: Gal(b1-4)GlcNAc(b1-3)Gal(b1-3)GlcNAc
# Method in brief: as §1
# [35] = biological target: Gal(b1-4)GlcNAc(b1-3)Gal(b1-4)Glc
# Method in brief: as §1
# [36] = biological target: Gal(b1-4)GlcNAc(b1-3)Gal(b1-4)GlcNAc
# Method in brief: as §1
# [37] = biological target: Gal(b1-4)GlcNAc(b1-3)Gal(b1-4)GlcNAc(b1-2)Man(a1-3)[Gal(b1-4)GlcNAc(b1-3)Gal(b1-4)GlcNAc(b1-2)Man(a1-6)]Man(b1-4)GlcNAc(b1-4)GlcNAc
# Method in brief: as §1
# [38] = biological target: Gal(b1-4)GlcNAc(b1-3)Gal(b1-4)GlcNAc(b1-2)Man(a1-3)[Gal(b1-4)GlcNAc(b1-3)Gal(b1-4)GlcNAc(b1-2)Man(a1-6)]Man(b1-4)GlcNAc(b1-4)[Fuc(a1-6)]GlcNAc
# Method in brief: as §1
binder,measurement,setting,value
B1,glycan array binding signal (z-score),[1],-0.345
same,glycan array binding signal (z-score),[2],-0.01
same,glycan array binding signal (z-score),[3],-0.459
same,glycan array binding signal (z-score),[4],-0.004
same,glycan array binding signal (z-score),[5],-0.359
same,glycan array binding signal (z-score),[6],-0.032
same,glycan array binding signal (z-score),[7],0.229
same,glycan array binding signal (z-score),[8],-0.476
same,glycan array binding signal (z-score),[9],0.046
same,glycan array binding signal (z-score),[10],-0.162
same,glycan array binding signal (z-score),[11],-0.145
same,glycan array binding signal (z-score),[12],0.173
same,glycan array binding signal (z-score),[13],-0.294
same,glycan array binding signal (z-score),[14],-0.534
same,glycan array binding signal (z-score),[15],-0.009
same,glycan array binding signal (z-score),[16],-0.109
same,glycan array binding signal (z-score),[17],0.098
same,glycan array binding signal (z-score),[18],-0.42
same,glycan array binding signal (z-score),[19],-0.156
same,glycan array binding signal (z-score),[20],-0.382
same,glycan array binding signal (z-score),[21],-0.118
same,glycan array binding signal (z-score),[22],-0.179
same,glycan array binding signal (z-score),[23],-0.367
same,glycan array binding signal (z-score),[24],-0.388
same,glycan array binding signal (z-score),[25],0.157
same,glycan array binding signal (z-score),[26],-0.283
same,glycan array binding signal (z-score),[27],-0.448
same,glycan array binding signal (z-score),[28],-0.568
same,glycan array binding signal (z-score),[29],-0.35
same,glycan array binding signal (z-score),[30],0.198
same,glycan array binding signal (z-score),[31],-0.429
same,glycan array binding signal (z-score),[32],-0.263
same,glycan array binding signal (z-score),[33],-0.331
same,glycan array binding signal (z-score),[34],-0.454
same,glycan array binding signal (z-score),[35],0.042
same,glycan array binding signal (z-score),[36],-0.362
same,glycan array binding signal (z-score),[37],0.012
same,glycan array binding signal (z-score),[38],0.109
